# Among all 390,000 compounds or so, about 610 (0.16%) were called active. Not shown: some 4% with an inconclusive outcome. The call rests on the fitted dose curve; in most records, active means well fitted inhibition curve with a large enough effect; inconclusive means small, poorly fitted or top-dose-only effect, or effect the other way, or another doubt; inactive means no such curve, though single readings can be large or run the other way. The entries are a selection whose mix differs from that of the whole data set. More than one record can exist for a structure, and the calls need not agree.
# Assay: Nrf2 qHTS screen for inhibitors: counterscreen for cytotoxicity
# Settings: A549 ARE-Fluc cells, CellTiter-Fluor viability, 18-24 h; series mostly up to 46 µM; activity change, negative = cytotoxicity: at the top concentration
# In short: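 A549 ARE-Fluc cells in 5% FBS OPTI-MEM, 5000 cells/well, rested 2 h then exposed to compounds in concentration-response for 18-24 h at 37 °C. Viability by CellTiter-Fluor fluorescence (Ex 405/Em 525) after 30 min; luciferase luminescence (BugLite, 15 min, RT) read afterwards.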
# On the % scale 0 is the no-effect control and ±100 the full control effect; potency means the concentration at half of the fitted maximal effect.
Compound,"activity change, negative = cytotoxicity",Potency
COc1ccc(/C=C2/SC(=S)N(CCCC(=O)Nc3ccc(O)cc3)C2=O)cc1,inactive: -4.1%,
COc1cccc(NC(=O)Nc2nc(-c3ccc(OC)c(OC)c3)cs2)c1,,active: 16.4 µM
COc1ccc(NC(=O)/C(Cl)=C(/Cl)S(=O)Cc2ccccc2)cn1 (centres undefined),,active: 20.6 µM
COc1ccc(NC(=O)/C(Cl)=C(/Cl)S(=O)Cc2ccc(Cl)cc2)cn1 (centres undefined),,active: 20.6 µM
COc1ccc(C[C@H]2CN3C(=NC[C@@H]3Cc3ccc(O)cc3)N2C[C@H](C)NC(=O)CCC2CCCCC2)cc1,inactive: -12.6%,
C1CCC(C(CC2CCCCN2)C2CCCCC2)CC1 (centres undefined),inactive: -1.9%,
Cc1ccc(SC[C@H](Cc2ccccc2)N2CCN(CCc3ccccc3)CCC2=O)cc1,inactive: -18.3%,
CN1C(=O)/C(=C2/C=Cc3ccccc3N2CCCS(=O)(=O)O)SC1=S,,active: 20.6 µM
Cn1nnnc1Sc1ncnc2scc(-c3ccc(F)cc3)c12,,inactive
O=C(C1=C[C@H](c2ccc(Br)cc2)C[C@H](OCCCCO)O1)N1CCN(Cc2ccccc2)CC1,inactive: 1.73%,
CN1CCCN(S(=O)(=O)c2ccc3c(c2)OCCO3)CC1,inactive: 14.2%,
COc1ccc(C2CC(c3ccccc3)Oc3cc(OC)c(OC)c(OC)c32)cc1 (centres undefined),inactive: 9%,
COc1cccc(CN2C(=O)[C@@H]3Cc4c([nH]c5ccccc45)C(C)(C)N3C2=O)c1,inactive: -3.55%,
CCN1C(=O)/C(=C2/C=Cc3cc(C)ccc3N2CC)N(C)C1=S,,active: 23.1 µM
C=CC[C@@H](CC(=O)N[C@@H](CO)Cc1ccccc1)C(=O)NC[C@H](OC(=O)[C@@H](CC=C)Cc1ccc(F)cc1)c1ccccc1,inactive: -12.2%,
OCC(O)[C@@H](O[C@H]1O[C@H](CO)[C@@H](O)[C@H](O)[C@H]1O)[C@H](O)[C@@H](O)CO (some centres undefined),inactive: 0.97%,
Cc1ccc(C(=O)c2cc([N+](=O)[O-])ccc2N2CCCCC2)cc1,,active: 16.4 µM
CCN1CCN(c2ccc(Nc3ccnc4ccccc34)cc2)CC1,,active: 6.51 µM
CCOc1ccccc1NC(=O)CCn1nc(C)c(S(=O)(=O)N2CCCCC2)c1C,inactive: 0.783%,
O=S(=O)(Nc1cccc(-c2ccc(N3CCCCCC3)nn2)c1)c1cccc(F)c1,inactive: -1.47%,
CNc1ccc(Br)cc(C(=O)/C=C/c2ccc(Cl)cc2Cl)c1=O,,active: 20.6 µM
Fc1ccc(C2CCNCC2COc2ccc3c(c2)OCO3)cc1 (centres undefined),inactive: -13.2%,
O=S(=O)(N[C@H]1C[C@@H](NS(=O)(=O)OCC(Cl)(Cl)Cl)C2CCCCC21)OCC(Cl)(Cl)Cl (some centres undefined),inactive: -3.56%,
Cn1nnnc1Sc1ncnc2scc(-c3cccc(C(F)(F)F)c3)c12,inactive: -11.5%,
COc1ccc(S(=O)(=O)Nc2cccc(-c3ccc(N4CCCCCC4)nn3)c2)c(OC)c1,inactive: -24.2%,
O=C(O)CCCN1C(=O)/C(=C/c2ccc(-c3nc4ccccc4s3)o2)SC1=S,inactive: -21.6%,
CN1C(=O)/C(=C\c2cc(N=Nc3ccccc3)ccc2O)SC1=S,inactive: -12.1%,

Compound,"activity change, negative = cytotoxicity",Potency
COc1ccc(C2c3ccc4ccccc4c3Oc3ncn(CCN4CCOCC4)c(=N)c32)cc1OC (centres undefined),inactive: 0.0539%,
C=C1C(=O)C23C(O)C1CCC2C12CCCC(C)(COC(C)=O)C1C(O)C3(O)OC2 (centres undefined),,active: 18.4 µM
CN1CCN(CCCN2c3ccccc3Sc3ccc(Cl)cc32)CC1,inactive: -14.7%,
O=C(C[C@H]1C/C=C\CC[C@H](Cc2ccc(F)cc2)C(=O)OC[C@@H]2CCCN2C1=O)N[C@H](CO)Cc1ccccc1,inactive: -0.829%,
O=C(O)C(O)c1ccccc1 (centres undefined),inactive: -2.61%,
C=CC[C@@H](Cc1ccc(F)cc1)C(=O)OC[C@H]1CCCN1C(=O)[C@@H](CC=C)CC(=O)N[C@@H](CO)Cc1ccccc1,inactive: -22.1%,
O=C(C[C@H]1C/C=C\C[C@@H](Cc2ccc(F)cc2)C(=O)O[C@H](c2ccccc2)CNC1=O)N[C@@H](CO)Cc1ccccc1,inactive: -3.1%,
COc1ccc(S(=O)(=O)Nc2cccc(-c3ccc(N4CCCCCC4)nn3)c2)cc1OC,inactive: -21.8%,
Cc1ccc(Nc2c(-c3ccc(N4CCOCC4)cc3)nc3ncccn23)cc1,inactive: -1.65%,
O=C1N[C@@H](c2ccccc2)COC(=O)[C@@H](Cc2ccc(F)cc2)CC/C=C/C[C@@H]1CC(=O)N(CCO)Cc1ccccc1,inactive: -25%,
N=c1c2c(ccn1Cc1ccccc1)Oc1ccc3ccccc3c1C2c1ccccc1 (centres undefined),,active: 11.6 µM
COc1cc(/C=C/c2[nH]c(=O)[nH]c(=O)c2[N+](=O)[O-])cc([N+](=O)[O-])c1O,,active: 16.4 µM
O=S(=O)(NCC(Nc1ccc(Cl)cc1)c1ccccc1)c1ccccc1 (centres undefined),inactive: -10.3%,
Cc1noc(NS(=O)(=O)c2ccc(N/C=C/C(=O)c3ccncc3)cc2)c1C,inactive: -28.5%,
Nc1ccc(S(=O)(=O)Nc2ccnn2-c2ccccc2)cc1,,inactive
O=C(CCCN1C(=O)/C(=C\c2cccs2)SC1=S)NNC(=O)c1ccncc1,inactive: -3.64%,
C=CCC[C@@H](Cc1ccc(F)cc1)C(=O)OC[C@H](Cc1c[nH]c2ccccc12)NC(=O)[C@@H](CC=C)CC(=O)N[C@H](CO)Cc1ccccc1,inactive: -9.96%,
CC(C)c1ccc(NC(=O)CCNS(=O)(=O)c2cccc3nsnc23)cc1,inactive: 0.993%,
COc1ccc(C2=Nn3c(nnc3-c3ccc(OC)cc3)SC2)cc1,inactive: -4%,
Cc1ccc(NC(=O)CSc2nc(-c3ccco3)cc(C(F)(F)F)n2)cc1C,inactive: -12.2%,
O=C1c2ccc3c4c(ccc(c24)C(=O)N1CCCCO)C(=O)N(CCCCO)C3=O,,active: 18.4 µM
O=C(C1=C[C@@H](C2CCCCC2)C[C@@H](OCCCCO)O1)N1CCN(Cc2ccc3c(c2)OCO3)CC1,inactive: -1.53%,
CC(C)(C)OC(=O)C[C@@H]1C/C=C\C[C@H](CC(=O)N(CCO)Cc2ccccc2)C(=O)NC[C@H](c2ccccc2)OC1=O,inactive: 1.11%,
C=CCC[C@@H](Cc1ccc(F)cc1)C(=O)OC[C@@H](C)NC(=O)[C@H](CC=C)CC(=O)N(CCO)Cc1ccccc1,inactive: -8.4%,
C=CC[C@@H](CC(=O)N(CCO)Cc1ccccc1)C(=O)N[C@@H](COC(=O)[C@@H](CC=C)CC(=O)OC(C)(C)C)Cc1c[nH]c2ccccc12,inactive: -18.4%,
C=CC[C@H](CC(=O)N(CCO)Cc1ccccc1)C(=O)N[C@H](COC(=O)[C@@H](CC=C)Cc1ccc(F)cc1)C(C)(C)C,inactive: -6.05%,
CNc1c2cccc(C)c2nc2c(C(=O)NCCN(C)C)cccc12,,active: 4.61 µM
